This is an account of results in a collection of fitness landscapes (doi:10.1038/s41467-024-54723-y).

Whole data set: some 18,000 sequences, median “TetR repression strength (sort-seq, GFP reporter)” near 0.23, cut for the highest 2% near 0.68. The list shows a part of the results.

Sequence of UniProt P04483 (P04483 whole entry): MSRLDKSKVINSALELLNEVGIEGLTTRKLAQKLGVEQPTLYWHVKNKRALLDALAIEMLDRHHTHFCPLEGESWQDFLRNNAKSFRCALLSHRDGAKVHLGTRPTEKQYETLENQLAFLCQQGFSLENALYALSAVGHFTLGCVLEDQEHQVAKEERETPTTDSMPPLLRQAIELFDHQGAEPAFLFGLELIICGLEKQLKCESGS

For this experiment, the target named is TetR (class B, Tn10) (UniProt P04483). As to the kind of experiment: TetR repression strength (sort-seq, GFP reporter) (relative to tetO2 = 1); higher = stronger repression. Particulars: E. coli. The procedure, abridged:
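In LB with 50 µg/mL chloramphenicol, E. coli SIG10-MAX holding a low-copy library with eight randomized operator positions between a constitutive promoter and sfGFP, plus constitutive TetR, grew for 5 h at 37 °C. FACS then sorted 10^6 cells into 13 fluorescence bins for Illumina sequencing of each bin. Repression strength equals the top bin index plus one less the read-weighted mean bin, normalized to the unaltered operator. Values from three independent transformations were averaged when reads were ≥30 in every replicate and the CV was ≤0.5.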
In the case of TCCCGTCGAGTCGGCGAGA, the TetR repression strength is 0.0942.
Regarding TCCCCCTAAGTAGCGGAGA, the TetR repression strength turned out to be 0.273.
The same measure for TCCCTCCGAGTCTGAGAGA: 0.164; for TCCCAGAGAGTGTGGGAGA: 0.144.
The same measure for TCCCCCAGAGTAGGCGAGA: 0.144.
Under TCCCTGCGAGTGTCTGAGA stands 0.204.
TCCCATTCAGTCAAGGAGA: the TetR repression strength worked out at 0.464.
With TCCCCTGGAGTGTGAGAGA, the TetR repression strength is 0.0332.
Under TCCCATGGAGTGTGAGAGA stands 0.294.
TCCCTCTCAGTTGTTGAGA: the TetR repression strength turned out to be 0.357.
The same measure for TCCCGCCGAGTCACAGAGA: 0.0411; for TCCCGTAAAGTGTCGGAGA: 0.0616.
The same measure for TCCCACTCAGTCACAGAGA: 0.279.
The same measure for TCCCGGTGAGTCTGTGAGA: 0.438; for TCCCGGCCAGTTACCGAGA: 0.207.
In the case of TCCCAAGCAGTTTTGGAGA, the TetR repression strength stood at 0.0594.
Under TCCCGTATAGTGCAAGAGA stands 0.464; under TCCCCGTGAGTCTGGGAGA, 0.144; under TCCCTGTCAGTAATCGAGA, 0.535.
The same measure for TCCCTTGAAGTGGTGGAGA: 0.202; for TCCCTGATAGTTACGGAGA: 0.412.
Under TCCCGGCTAGTGCGCGAGA stands 0.241.
Regarding TCCCATGTAGTGTCGGAGA, the TetR repression strength stood at 0.301.
Under TCCCGTGCAGTCCTCGAGA stands 0.171.
The same measure for TCCCAACTAGTAAATGAGA: 0.567.
The same measure for TCCCGGCTAGTCCTGGAGA: 0.234.
TCCCGGTAAGTTGAGGAGA: the TetR repression strength was 0.661.
The same measure for TCCCCGCGAGTGAGTGAGA: 0.269; for TCCCTGGCAGTGCGTGAGA: 0.16; for TCCCGAGTAGTTACAGAGA: 0.136.
The sequence TCCCTAACAGTGACAGAGA displayed a TetR repression strength of 0.559.
The same measure for TCCCTACTAGTGTTGGAGA: 0.217.
In turn, TCCCCGTAAGTTAGGGAGA had a TetR repression strength of 0.166.
For the sequence TCCCGTGAAGTCCGCGAGA, the TetR repression strength came out at 0.2.
Under TCCCCGACAGTATAGGAGA stands 0.143; under TCCCTGTTAGTCCTCGAGA, 0.431.
The same measure for TCCCGCCGAGTAGTGGAGA: 0.27; for TCCCCCCAAGTAGGTGAGA: 0.1.
Under TCCCGGGTAGTGTGTGAGA stands 0.224.
Turning to TCCCAGCGAGTGTTTGAGA, the TetR repression strength was found to be 0.257.
Under TCCCGATTAGTACACGAGA stands 0.24; under TCCCGGTTAGTGCAAGAGA, 0.415; under TCCCGTAGAGTGAATGAGA, 0.217.
Under TCCCGGCCAGTACCGGAGA stands 0.222.
The same measure for TCCCGCGGAGTGTAGGAGA: 0.415; for TCCCAGGCAGTCGGCGAGA: 0.25; for TCCCTGTTAGTGGCGGAGA: 0.2.
For TCCCTGCGAGTCGAGGAGA, the TetR repression strength is 0.253.
The same measure for TCCCTGTGAGTGGGCGAGA: 0.329; for TCCCGCCTAGTATCGGAGA: 0.095.
Under TCCCGAGTAGTGGGCGAGA stands 0.186; under TCCCTGTAAGTTGACGAGA, 0.1; under TCCCATGTAGTTATGGAGA, 0.295.
TCCCGCGGAGTCCTCGAGA registered a TetR repression strength of 0.294.
Under TCCCACTTAGTCGTAGAGA stands 0.125; under TCCCAACTAGTCCTGGAGA, 0.278.
The same measure for TCCCCACCAGTGCTCGAGA: 0.491.
The same measure for TCCCGAGCAGTGGAAGAGA: 0.252.
TCCCCCAGAGTATCGGAGA: the TetR repression strength amounted to 0.0944.
Sequence TCCCTCTAAGTTGTAGAGA registered a TetR repression strength of 0.256.
Under TCCCATGAAGTCTGAGAGA stands 0.226; under TCCCGGGTAGTTGTGGAGA, 0.224.
Under TCCCACCCAGTGACAGAGA stands 0.585.
Under TCCCCTGTAGTGTGCGAGA stands 0.297; under TCCCTTAGAGTCGCAGAGA, 0.265; under TCCCCAGGAGTGAAGGAGA, 0.118.
Consider TCCCGGGTAGTTTTTGAGA, for which the TetR repression strength was 0.143.
As to TCCCTGCGAGTTAAAGAGA, the TetR repression strength amounted to 0.128.
In the case of TCCCATCTAGTCTTGGAGA, the TetR repression strength is 0.128.
Under TCCCAGGGAGTGAGTGAGA stands 0.18.
The same measure for TCCCACTGAGTACTTGAGA: 0.418; for TCCCGCCGAGTGGTTGAGA: 0.235; for TCCCTCTGAGTAAAGGAGA: 0.118.
Under TCCCGTGTAGTGGTAGAGA stands 0.202; under TCCCCGTCAGTGGAAGAGA, 0.104.
In turn, TCCCTTATAGTGTAGGAGA displayed a TetR repression strength of 0.0398.
Under TCCCGCGGAGTACCGGAGA stands 0.217; under TCCCTGGCAGTATGGGAGA, 0.311; under TCCCGTACAGTGTGGGAGA, 0.226.
As for TCCCATTAAGTGAACGAGA, the TetR repression strength amounted to 0.253.
Under TCCCTGTTAGTCGGGGAGA stands 0.242.
The same measure for TCCCGACCAGTGGGAGAGA: 0.201; for TCCCTGACAGTCCAAGAGA: 0.176; for TCCCGCATAGTGCGTGAGA: 0.188.
Under TCCCGGCCAGTGCTAGAGA stands 0.327; under TCCCAAGAAGTCGACGAGA, 0.35.
Take TCCCTTGGAGTGGCCGAGA: the TetR repression strength was found to be 0.277.
The same measure for TCCCATGAAGTAAAGGAGA: 0.242; for TCCCTGTCAGTTGGAGAGA: 0.36; for TCCCTGCTAGTTATTGAGA: 0.38.
Under TCCCAAGGAGTCGTAGAGA stands 0.204; under TCCCGGTAAGTCGTCGAGA, 0.302; under TCCCCTGCAGTGTACGAGA, 0.231.
The same measure for TCCCGGAAAGTGATTGAGA: 0.258; for TCCCCCCGAGTACGTGAGA: 0.839; for TCCCTGGGAGTGGAAGAGA: 0.112.
For the sequence TCCCGAACAGTAACGGAGA, the TetR repression strength came out at 0.571.
The same measure for TCCCTGGAAGTGGCGGAGA: 0.0741; for TCCCTCTGAGTGTTAGAGA: 0.395; for TCCCGCGTAGTCAACGAGA: 0.399.
Under TCCCAGTGAGTGGAGGAGA stands 0.183; under TCCCTCGGAGTGCCTGAGA, 0.238.
The same measure for TCCCGATGAGTAGCGGAGA: 0.353; for TCCCCAATAGTAAACGAGA: 0.401; for TCCCTTCCAGTTATAGAGA: 0.511.
Sequence TCCCAACTAGTGAGAGAGA displayed a TetR repression strength of 0.104.
Under TCCCAGCCAGTGGTGGAGA stands 0.447; under TCCCCTACAGTACACGAGA, 0.31.
Under TCCCATCGAGTGAGGGAGA stands 0.381; under TCCCGGGTAGTCGTTGAGA, 0.495.
Under TCCCAAGGAGTTTGCGAGA stands 0.
TCCCACTTAGTTGCTGAGA showed a TetR repression strength of 0.19.
Under TCCCCGTAAGTAAGTGAGA stands 0.199; under TCCCTTTAAGTCTCTGAGA, 0.249.
Under TCCCGTCCAGTGTCTGAGA stands 0.401; under TCCCAATTAGTTCGTGAGA, 0.12; under TCCCGAGAAGTACGTGAGA, 0.237.
Under TCCCGAGAAGTAAGCGAGA stands 0.255; under TCCCCCGGAGTTATAGAGA, 0.416.
As for TCCCTGCGAGTGAGCGAGA, the TetR repression strength was 0.134.
Under TCCCAGGGAGTTCATGAGA stands 0.15; under TCCCTGATAGTACTCGAGA, 0.278; under TCCCGGACAGTTTCAGAGA, 0.13.
Under TCCCTGCCAGTTGGGGAGA stands 0.388; under TCCCGCAGAGTAGGAGAGA, 0.169.
The same measure for TCCCAGTTAGTATAAGAGA: 0.354; for TCCCGCATAGTGAGGGAGA: 0.232.
TCCCAAGCAGTTGTCGAGA: the TetR repression strength came out at 0.299.
Under TCCCGAACAGTGCCGGAGA stands 0.476; under TCCCAGTGAGTAGGAGAGA, 0.0995.
